# PubChem BioAssay AID624417 (National Center for Advancing Translational Sciences (NCATS), 2012)
# Screen size: about 410,000 compounds; about 6,400 (1.6%) were called active. This list was built around the results that the source calls inconclusive (neither active nor inactive); the mix of calls is not that of the screen. The call rests on the fitted dose curve; in most records, active means well fitted inhibition curve with a large enough effect; inconclusive means small, poorly fitted or top-dose-only effect; inactive means no such curve, though single readings can be large or run the other way. No potency is given beside an inconclusive call; the fits are too rough.
# Biological target: Glucagon-like peptide 1 receptor (Homo sapiens) (UniProt P43220)
# Assay: qHTS of GLP-1 Receptor Inverse Agonists (Inhibition Mode); further: nearly all actives have a fitted effect of over 55% in size
# Conditions: HEK293 GLP-1R CRE-luciferase, luminescence, 24 h, GLP-1R form is constitutively active; series mostly up to 38.3 µM
# In short: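 HEK293 cells stably co-expressing constitutively active GLP-1R and a cAMP-responsive luciferase reporter were seeded in DMEM with 10% Nu serum, given compounds after 12 h, and incubated 24 h at 37 deg C. Luminescence was then read.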
# Potency means the concentration at half of the fitted maximal effect; tags describe the fitted curve by direction and shape.
# Sequence of UniProt P43220 (P43220 whole entry, looked up): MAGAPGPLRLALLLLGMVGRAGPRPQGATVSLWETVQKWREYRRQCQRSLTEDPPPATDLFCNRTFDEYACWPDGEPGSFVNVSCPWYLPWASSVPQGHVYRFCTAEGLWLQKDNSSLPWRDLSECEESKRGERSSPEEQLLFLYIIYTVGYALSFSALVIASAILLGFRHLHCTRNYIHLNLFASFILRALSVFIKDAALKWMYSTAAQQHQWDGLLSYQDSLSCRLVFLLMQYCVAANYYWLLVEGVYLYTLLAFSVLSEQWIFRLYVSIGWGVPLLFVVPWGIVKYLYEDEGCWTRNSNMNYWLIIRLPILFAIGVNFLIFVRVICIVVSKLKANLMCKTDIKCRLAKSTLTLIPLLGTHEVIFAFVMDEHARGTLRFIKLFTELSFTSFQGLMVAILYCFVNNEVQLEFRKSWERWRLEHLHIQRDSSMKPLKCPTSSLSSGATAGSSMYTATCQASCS
row,SMILES,Potency
1,CCCC(=O)Nc1ccc2c(c1)Cc1ccccc1-2,"inconclusive [inhibitor, single point]"
2,CCCN(CCC)CCNC(=O)c1cc(Sc2ccc(Cl)cc2)nc2ccccc12,"inconclusive [inhibitor, partial curve]"
3,O=C(NCc1ccc(F)c(F)c1)C1CCC(=O)N(CCc2ccccc2)C1 (centres undefined),inactive
4,Cc1cc(S(=O)(=O)NCC(c2ccc(F)cc2)N2CCN(C)CC2)ccc1F (centres undefined),"inconclusive [inhibitor, partial curve, poor fit]"
5,CC(C)C(=O)Nc1ncc(Cc2ccc(Cl)cc2)s1,"inconclusive [inhibitor, single point]"
6,CCSC1=NC2(CCN(C(=O)NC3CCCCC3)CC2)N=C1c1ccc(C)c(C)c1,inactive
7,O=C(COc1ccc(/C=N/NC(=O)CSCc2ccc([N+](=O)[O-])cc2)cc1)NCc1ccco1,"inconclusive [inhibitor, partial curve, poor fit]"
8,CN1/C(=C/C=C(/C#N)C(N)=O)C(C)(C)c2ccccc21,"inconclusive [inhibitor, full curve, poor fit]"
9,COc1ccccc1NC1=C(Cl)C(=O)N(C2CCCCC2)C1=O,"inconclusive [inhibitor, single point]"
10,Cc1cc(C)n(-c2nc(NCCCN(C)C)c3c4c(sc3n2)CCCC4)n1,"inconclusive [inhibitor, partial curve, poor fit]"
11,COc1cccc(-c2cccc(NC(=O)C3CCN(Cc4cccc(C)n4)CC3)c2)c1,inactive
12,O=C(NCCN1CCC(n2c(=O)[nH]c3ccccc32)CC1)c1ccc(F)cc1,inactive
13,NC(=O)NC(c1ccc(Cl)cc1)c1ccccc1Cl (centres undefined),"inconclusive [inhibitor, partial curve, poor fit]"
14,O=C(CCS(=O)(=O)c1ccccc1)N(CCCN1CCOCC1)c1nc2ccccc2s1,"inconclusive [inhibitor, single point]"
15,CCC1=C(OC(=O)N(CC)CC)N2C(=O)OC(=NCCc3c[nH]c4ccccc34)[C@]2(Cc2ccccc2)[C@H]2C1=CC[C@H]1C(=O)N(CC(=O)OC)C(=O)[C@H]12,"inconclusive [inhibitor, single point]"
16,CCC(C)n1c(-c2cccc(S(=O)(=O)N3CCOCC3)c2)n[nH]c1=S (centres undefined),inactive
17,COc1ccc(/C=N/NC(=O)c2nnn(-c3nonc3N)c2-c2cccc(OC)c2)cc1,"inconclusive [inhibitor, single point]"
18,Clc1ccc(NN(Cc2ccncc2)c2ccc(Cl)cc2)cc1,"inconclusive [inhibitor, single point]"
19,Cc1ccccc1C1=NC(C(F)(F)F)(C(F)(F)F)c2c(n(C)c(=O)n(C)c2=O)N1,inactive
20,CCCn1c(=N)n(CC(=O)c2ccc(Cl)c(Cl)c2)c2ccccc21,"inconclusive [inhibitor, partial curve, poor fit]"
21,COc1cc(C2C(=O)N(C3CCC(C)CC3)CC(=O)N2CCc2ccc(Cl)cc2)ccc1OC(C)C (centres undefined),inactive
22,CCOC(=O)Cc1csc(NC(=O)COc2ccc3ccccc3c2)n1,"inconclusive [inhibitor, single point]"

row,SMILES,Potency
1,Cc1ccc(Nc2cc(-c3ccccc3)nc(C)n2)cc1,"inconclusive [inhibitor, single point]"
2,Clc1ccc2c(NCc3ccccn3)ccnc2c1,inactive
3,Cc1[nH][nH]c(=O)c1C(c1c(C)[nH][nH]c1=O)c1cn(Cc2ccccc2Cl)c2ccccc12,"inconclusive [inhibitor, partial curve, poor fit]"
4,CCOC(=O)c1cc(C#N)c(Oc2ccccc2OC)nc1-c1ccccc1,"inconclusive [inhibitor, partial curve, poor fit]"
5,c1ccc(OCCOc2ncnc3sccc23)cc1,inactive
6,Cc1ccc(S(=O)(=O)N2CCN(C(=O)CCC(=O)Nc3ccc(Br)c(C)c3)CC2)cc1,"inconclusive [inhibitor, single point]"
7,COc1c(Br)cc(Br)cc1/C=N/n1c(C)nnc1C,"inconclusive [inhibitor, single point]"
8,Cc1cc(C)c(NC(=O)CCc2c(C)noc2C)c(C)c1,inactive
9,NS(=O)(=O)c1ccc(NC(=S)N2CCN(Cc3ccc(Cl)c(Cl)c3)CC2)cc1,active: 8.91 µM
10,COC(=O)[C@]12CCCCC=C1N(CCc1ccc(OC)c(OC)c1)C(=O)[C@H](CC(=O)NCc1cccc3ccccc13)C2,"inconclusive [inhibitor, single point]"
11,c1ccc(Cc2noc(CN3CCN(C4CCc5ccccc5C4)CC3)n2)cc1 (centres undefined),"inconclusive [inhibitor, single point]"
12,CCc1ccc(CNC(=O)CCc2cn(C)c3ccccc23)cc1,"inconclusive [inhibitor, partial curve, poor fit]"
13,CCOC(=O)[C@]12CCC=C1N(Cc1cccc3ccccc13)C(=O)[C@H](CC(=O)NCCCCc1ccccc1)C2,"inconclusive [inhibitor, single point]"
14,CCN1CCN(C(=O)c2cc3c(s2)-c2c(C)cccc2OC3)CC1,"inconclusive [inhibitor, single point]"
15,CCO/N=C/c1ccc(OC)c(Oc2nc(OC)cc(OC)n2)c1,"inconclusive [inhibitor, single point]"
16,CCOC(=O)c1c(C)n(C)c2ccc(OCC(O)CN3CCC(C)CC3)cc12 (centres undefined),"inconclusive [inhibitor, partial curve, poor fit]"
17,Cc1ccc(-c2cc(C(=O)Nc3ccc(S(=O)(=O)Nc4cc(C)on4)cc3)c3ccccc3n2)c(C)c1,"inconclusive [inhibitor, partial curve, poor fit]"
18,CCCC(=O)NC(c1ccc(N(C)C)cc1)c1c(O)ccc2ccccc12 (centres undefined),"inconclusive [inhibitor, partial curve, poor fit]"
19,COc1ccccc1-c1ccc2c(c1)C(C)(Cc1cccc(C#N)c1)C(=O)N2 (centres undefined),"inconclusive [inhibitor, partial curve, poor fit]"
20,COC(=O)c1ccccc1OCCOCCOc1cccc2ccc(C)nc12,"inconclusive [inhibitor, single point]"
21,CCOCCOc1nc(C)cc(C)c1S(=O)(=O)c1ccccc1C,"inconclusive [inhibitor, single point]"
22,COc1cc(CNc2ccc(N3CCOCC3)cc2)cc(Br)c1OC,inactive

row,SMILES,Potency
1,COc1cc(NC(=O)c2cc3ccccc3cc2OC)ccc1NC(=O)c1cccs1,"inconclusive [inhibitor, full curve, poor fit]"
2,Cc1nc(SCC(=O)N2CCN(c3ccccc3)CC2)n[nH]1,inactive
3,CCOc1ccc(NC(=O)c2oc3ccccc3c2NC(=O)Cc2ccc(OC)c(OC)c2)cc1,inactive
4,Cc1ccc(C)c(CN2C(=O)c3ccccc3Sc3ccc(C(=O)NCCCOC(C)C)cc32)c1,"inconclusive [inhibitor, partial curve, poor fit]"
5,Cc1c(N)c(C(C)(C)C)cc(C(C)(C)C)c1[N+](=O)[O-],"inconclusive [inhibitor, single point]"
6,CCCc1cc(C(=O)Nc2cc(C)ccc2O)no1,inactive
7,Cc1c(C(=O)N2CCc3ccccc3C2)oc2ccccc12,"inconclusive [inhibitor, single point]"
8,CC(=O)Nc1cc(-c2ccccc2N(C)C)cn2c(-c3ccc(F)c(Cl)c3)cnc12,"inconclusive [inhibitor, single point]"
9,CCN(CC(=O)NCc1cccs1)C(=O)COc1cccc(C(F)(F)F)c1,"inconclusive [inhibitor, single point]"
10,CCc1nn(C(C)C(=O)Nc2cccc(C)c2C)c(=O)c2cc3occc3n12 (centres undefined),"inconclusive [inhibitor, partial curve]"
11,COc1cccc(CN2CCN(C(=S)NCc3ccc(Cl)cc3)CC2)c1,"inconclusive [inhibitor, partial curve, poor fit]"
12,Cc1ccc(NC(=O)Nc2cccnc2)cc1Cl,"inconclusive [inhibitor, single point]"
13,CC(CNC(=O)c1ccc(Cn2c(SCc3ccccc3)nc3cccnc32)cc1)c1ccccc1 (centres undefined),"inconclusive [inhibitor, single point]"
14,O=C(CCCN1C(=O)/C(=C\c2cccc(Br)c2)SC1=S)Nc1cccnc1,"inconclusive [inhibitor, full curve, poor fit]"
15,S=c1[nH]nc(Cc2cccs2)n1-c1cccc2ccccc12,inactive
16,O=C(NC1CCCc2c1cnn2-c1ccccc1F)c1ccccn1 (centres undefined),"inconclusive [inhibitor, full curve]"
17,Cc1cccc(NS(=O)(=O)c2nnc(NC(=O)C3CCCCC3)s2)c1,"inconclusive [inhibitor, single point]"
18,COc1cccc(C2=NN(C(=O)c3ccc(C)o3)C(O)(C(F)(F)F)C2)c1 (centres undefined),"inconclusive [inhibitor, full curve, poor fit]"
19,COc1ccc(CNC(=O)c2cc(Nc3ccc(OC)cc3OC)nc3ccccc23)cc1,"inconclusive [inhibitor, single point]"
20,CCOC(=O)c1ccc(NC(=O)c2ccc3c(c2)CCN3S(=O)(=O)c2ccc(Cl)cc2)cc1,inactive
